From the RNAGym collection of RNA variant scans (doi:10.1073/pnas.2313332121)
Variants at the background level are over-represented here.

B1: TPR 5TU (parent)
chain: GGAUCUUCUCGAUCUAACAAAAAAGACAAAUCUGCCACAAAGCUUGAGAGCAUCUUCGGAUGCAGAGGCGGCAGCCUUCGGUGGCGCGAUAGCGCCAACGUUCUCAACUAUGACACGCAAAACGCGUGCUCCGUUGAAUGGAGUUUAUCAUG

Variants of: B1
Experiment: polymerase ribozyme fitness, log enrichment relative to wild type (log ratio); higher = more active; in vitro selection for triplet polymerase activity
Outline: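 Mutant libraries of both subunits of a heterodimeric triplet polymerase ribozyme were PCR-built, transcribed, and selected once in triplicate, with frozen incubation at −7 °C and capture of gel-excised extended constructs on streptavidin beads before RT-PCR. Illumina sequencing of input and output libraries was filtered to genotypes with ≥10 input reads and ≥1 read per output. Fitness is the logarithm of genotype enrichment over wild-type enrichment, using inverse-variance-weighted replicate averages. The logarithm is base 2.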
For C32A U33G A47C, the “polymerase ribozyme fitness (log ratio)” value was at most -4.2.
For C32G U56G G68C, the “polymerase ribozyme fitness (log ratio)” value was at most -4.2.
For U31G A47C A60C G65U, the “polymerase ribozyme fitness (log ratio)” value was at most -4.2.
With U31G C35A C87A U101G C108U A120G C149A U151A the “polymerase ribozyme fitness (log ratio)” value was at most -4.2.
With C32G U82G the “polymerase ribozyme fitness (log ratio)” value was at most -4.2.
For C32G A52C G71A C87A G92U C99A G133U U139A, the “polymerase ribozyme fitness (log ratio)” value was at most -4.2.
In the case of C32U C36U U55A G68U U77G G143U U144C, the “polymerase ribozyme fitness (log ratio)” value is reported as at most -4.2.
With U31G G84C A97U U127G C149G the “polymerase ribozyme fitness (log ratio)” value was at most -4.2.
For C32G C38G C85U A97C C132U, the “polymerase ribozyme fitness (log ratio)” value was at most -4.2.
With C32U U44G C54U C85A A113U C116G the “polymerase ribozyme fitness (log ratio)” value was at most -4.2.
For C32U C85G, the “polymerase ribozyme fitness (log ratio)” value was at most -4.2.
In the case of U33A U55A C87A U104C A122G G143A, the “polymerase ribozyme fitness (log ratio)” value is reported as at most -4.2.
In the case of C32A A40G A47G C72G, the “polymerase ribozyme fitness (log ratio)” value is reported as at most -4.2.
In the case of C32U C54U G88U C116U, the “polymerase ribozyme fitness (log ratio)” value is reported as at most -4.2.
In the case of C32U G68A C85A G94A U139A A147C, the “polymerase ribozyme fitness (log ratio)” value is reported as at most -4.2.
For C32G C76G G84C C118U C132G G133C, the “polymerase ribozyme fitness (log ratio)” value was at most -4.2.
In the case of C32U G46U C103G U104G A107C G140C, the “polymerase ribozyme fitness (log ratio)” value is reported as at most -4.2.
In the case of C32A C35U G68U G80A A91U C96U A138U, the “polymerase ribozyme fitness (log ratio)” value is reported as at most -4.2.
With C32U C63A A66C C93U C118G U135A the “polymerase ribozyme fitness (log ratio)” value was at most -4.2.
With C32A C79A A122G U135C the “polymerase ribozyme fitness (log ratio)” value was at most -4.2.
In the case of C32G G50U C51G C96A A106U, the “polymerase ribozyme fitness (log ratio)” value is reported as at most -4.2.
In the case of C32A C36G A47G C72G A89G A91G, the “polymerase ribozyme fitness (log ratio)” value is reported as at most -4.2.
For C32G U55A U77G A91G C125A U139C A147U U148G U151A, the “polymerase ribozyme fitness (log ratio)” value was at most -4.2.
In the case of C32G A39G A73G A110G, the “polymerase ribozyme fitness (log ratio)” value is reported as at most -4.2.
With U33C U82C C87G A110U the “polymerase ribozyme fitness (log ratio)” value was at most -4.2.
For C32U A52G U55G G94C, the “polymerase ribozyme fitness (log ratio)” value was -3.43.
For U31G, the “polymerase ribozyme fitness (log ratio)” value was 0.749.
For C32U U56G C75U G81C G83U C85U U101G, the “polymerase ribozyme fitness (log ratio)” value was at most -4.2.
For U31G U55A A60C G92U C93A C125G U134A, the “polymerase ribozyme fitness (log ratio)” value was at most -4.2.
In the case of C32U C54A G88C C125G G126U, the “polymerase ribozyme fitness (log ratio)” value is reported as at most -4.2.
With U33C A60G G71A C85G G88U U148G the “polymerase ribozyme fitness (log ratio)” value was at most -4.2.
With C32U U56A A66G C85G A120G G136U the “polymerase ribozyme fitness (log ratio)” value was at most -4.2.
With C32U A47C C85A C93U C99U C114G G152C the “polymerase ribozyme fitness (log ratio)” value was at most -4.2.
With U31G C87A A107U U111A A121C C131G the “polymerase ribozyme fitness (log ratio)” value was at most -4.2.
For U31G C32U C72A C123G G152A, the “polymerase ribozyme fitness (log ratio)” value was at most -4.2.
With C32G C35A A40U C105U the “polymerase ribozyme fitness (log ratio)” value was at most -4.2.
In the case of C32U A49U G68A C87U C105G A137U, the “polymerase ribozyme fitness (log ratio)” value is reported as at most -4.2.
With C32U C38U C87G C96U A138G the “polymerase ribozyme fitness (log ratio)” value was at most -4.2.
For U33A U45A G68U C87A U127C A137U, the “polymerase ribozyme fitness (log ratio)” value was at most -4.2.
With C32U G80C C87A G133U the “polymerase ribozyme fitness (log ratio)” value was at most -4.2.
In the case of U33A A39C U55A G62A, the “polymerase ribozyme fitness (log ratio)” value is reported as at most -4.2.
For U31G G42A C57U C79A G84U C87G A120U U127C U139A U144C, the “polymerase ribozyme fitness (log ratio)” value was at most -4.2.
For C32A C75A C87A A110G A119C, the “polymerase ribozyme fitness (log ratio)” value was at most -4.2.
With C32A G50A G94U A107C G143A the “polymerase ribozyme fitness (log ratio)” value was at most -4.2.
With U31G U33A A60U C95A A107U G133C the “polymerase ribozyme fitness (log ratio)” value was at most -4.2.
For C32G C54A G62A G84U C116U G133U, the “polymerase ribozyme fitness (log ratio)” value was at most -4.2.
With U33A U44G A107G A122G C132U the “polymerase ribozyme fitness (log ratio)” value was at most -4.2.
For C32G A37C G48A U56G G80A G84U A97U, the “polymerase ribozyme fitness (log ratio)” value was at most -4.2.
With C32A C85G the “polymerase ribozyme fitness (log ratio)” value was at most -4.2.
With C32A G65A G88A C118U A120C A142G U144C the “polymerase ribozyme fitness (log ratio)” value was at most -4.2.
In the case of U33A G88U A91C C103A C105U C125G, the “polymerase ribozyme fitness (log ratio)” value is reported as at most -4.2.
For U31G A37U G58C C76U U111G, the “polymerase ribozyme fitness (log ratio)” value was at most -4.2.
For U33C A64U U90C G92U G94A U139A, the “polymerase ribozyme fitness (log ratio)” value was at most -4.2.
For U33A A49U C57U C63U G68A C87G C118A A119G C123A C131G, the “polymerase ribozyme fitness (log ratio)” value was at most -4.2.
With U33A U53A C87A C125U the “polymerase ribozyme fitness (log ratio)” value was at most -4.2.
In the case of U31G A37C C51U G58U G70C C79U A106U, the “polymerase ribozyme fitness (log ratio)” value is reported as at most -4.2.
In the case of C32A C38U G70A U78A A91U C96G, the “polymerase ribozyme fitness (log ratio)” value is reported as at most -4.2.
In the case of C32U U61A G74A G80C C93U U104A U127A U130C U135G G140U, the “polymerase ribozyme fitness (log ratio)” value is reported as at most -4.2.
With C32U A60U G84U C108U U109C the “polymerase ribozyme fitness (log ratio)” value was at most -4.2.
For U31G U53A U90G U139A, the “polymerase ribozyme fitness (log ratio)” value was at most -4.2.
In the case of U31G G83C C85G, the “polymerase ribozyme fitness (log ratio)” value is reported as at most -4.2.
In the case of C32U A39G A41U C54A G81A C118U, the “polymerase ribozyme fitness (log ratio)” value is reported as at most -4.2.
With C32U C43A C85G G86C U90G C103U A110G A121U C132G U135G G136A the “polymerase ribozyme fitness (log ratio)” value was at most -4.2.
With U33A A52G C93U C96A U134A A142C the “polymerase ribozyme fitness (log ratio)” value was at most -4.2.
With C32G A41C C75U the “polymerase ribozyme fitness (log ratio)” value was at most -4.2.
In the case of C32U G42C G86C, the “polymerase ribozyme fitness (log ratio)” value is reported as at most -4.2.
With U33A C38G A52U C87G G136A the “polymerase ribozyme fitness (log ratio)” value was at most -4.2.
For U31G U45A A49C U82G C85U C96A A97G A110U G117U G128C, the “polymerase ribozyme fitness (log ratio)” value was at most -4.2.
In the case of C32A G34U U55G G94C U127C G143A A150C, the “polymerase ribozyme fitness (log ratio)” value is reported as at most -4.2.
In the case of C32G C36U G59C C76A G83C C108G A138U U145C, the “polymerase ribozyme fitness (log ratio)” value is reported as at most -4.2.
For U33A U102A A106U, the “polymerase ribozyme fitness (log ratio)” value was at most -4.2.
In the case of C32A A37C U44G G70A A113C, the “polymerase ribozyme fitness (log ratio)” value is reported as at most -4.2.
For U31G U61A A66G U90C U101C, the “polymerase ribozyme fitness (log ratio)” value was at most -4.2.
In the case of C32G C87A U111A A142U, the “polymerase ribozyme fitness (log ratio)” value is reported as at most -4.2.
In the case of C32U G68U C93U A147U, the “polymerase ribozyme fitness (log ratio)” value is reported as at most -4.2.
With C32A C85G C103G C114A the “polymerase ribozyme fitness (log ratio)” value was at most -4.2.
For C32U U56A G58A G68A C76A C93A, the “polymerase ribozyme fitness (log ratio)” value was at most -4.2.
In the case of U33A A49U G94U A119U U148A, the “polymerase ribozyme fitness (log ratio)” value is reported as at most -4.2.
With U33C A39C G48A U82C A113G C114U U145C the “polymerase ribozyme fitness (log ratio)” value was at most -4.2.
In the case of U33A G94A G136U G141C, the “polymerase ribozyme fitness (log ratio)” value is reported as at most -4.2.
In the case of U33A G74C U104A G126U G143U, the “polymerase ribozyme fitness (log ratio)” value is reported as at most -4.2.
For C32U A39U A40U U44A C125A, the “polymerase ribozyme fitness (log ratio)” value was at most -4.2.
In the case of C32U U55A C63U C118A, the “polymerase ribozyme fitness (log ratio)” value is reported as -3.08.
In the case of C32A A37G G74A, the “polymerase ribozyme fitness (log ratio)” value is reported as at most -4.2.
